This note sets out measurements from patent publication US20150197568A1 (AstraZeneca / MedImmune, published 2015).

Where “and” joins values, the source holds several entries; their conditions need not be identical. Identical values can stand only once.

B1: F106E mutant IL-6 (ligand)
chain: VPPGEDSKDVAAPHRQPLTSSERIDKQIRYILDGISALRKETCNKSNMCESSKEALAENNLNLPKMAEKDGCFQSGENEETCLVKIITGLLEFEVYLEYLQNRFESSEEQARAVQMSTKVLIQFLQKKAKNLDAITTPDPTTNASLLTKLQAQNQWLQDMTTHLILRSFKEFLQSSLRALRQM
notes: As for F102E mutant: made from pT7flagHISIL-6
B2: R207L mutant IL-6 (ligand)
chain: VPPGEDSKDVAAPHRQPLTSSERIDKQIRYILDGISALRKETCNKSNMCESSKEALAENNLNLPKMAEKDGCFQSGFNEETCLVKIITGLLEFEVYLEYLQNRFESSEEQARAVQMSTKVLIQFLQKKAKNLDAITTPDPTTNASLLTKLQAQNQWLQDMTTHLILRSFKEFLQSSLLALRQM
notes: as for B1
B3: S204E mutant IL-6 (ligand)
chain: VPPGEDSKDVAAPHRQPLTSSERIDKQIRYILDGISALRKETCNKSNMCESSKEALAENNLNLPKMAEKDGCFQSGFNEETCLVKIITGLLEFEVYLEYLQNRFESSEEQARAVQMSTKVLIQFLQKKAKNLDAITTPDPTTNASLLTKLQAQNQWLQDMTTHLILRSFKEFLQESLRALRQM
notes: As for F102E mutant: made from pT7flagHISIL-6; also called Ser204Glu mutant human IL-6
B4: R58E mutant IL-6 (ligand)
chain: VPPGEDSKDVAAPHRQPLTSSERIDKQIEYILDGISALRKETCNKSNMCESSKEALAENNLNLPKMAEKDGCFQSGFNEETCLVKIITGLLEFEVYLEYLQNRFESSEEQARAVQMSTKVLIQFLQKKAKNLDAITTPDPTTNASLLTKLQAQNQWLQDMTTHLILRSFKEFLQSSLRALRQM
notes: as for B1
B5: E200W mutant IL-6 (ligand)
chain: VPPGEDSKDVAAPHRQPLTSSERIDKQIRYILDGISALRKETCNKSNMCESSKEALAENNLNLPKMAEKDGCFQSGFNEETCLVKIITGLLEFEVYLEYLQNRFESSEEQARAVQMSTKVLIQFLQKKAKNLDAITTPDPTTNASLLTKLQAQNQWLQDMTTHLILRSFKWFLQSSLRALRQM
notes: as for B1
B6: Q211A mutant IL-6 (ligand)
chain: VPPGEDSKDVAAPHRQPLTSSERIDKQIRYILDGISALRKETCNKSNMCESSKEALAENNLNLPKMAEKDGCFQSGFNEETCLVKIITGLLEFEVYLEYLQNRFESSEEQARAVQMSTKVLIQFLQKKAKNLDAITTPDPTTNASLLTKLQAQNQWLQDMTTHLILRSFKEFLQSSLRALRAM
notes: as for B1
B7: F102E mutant IL-6 (ligand)
chain: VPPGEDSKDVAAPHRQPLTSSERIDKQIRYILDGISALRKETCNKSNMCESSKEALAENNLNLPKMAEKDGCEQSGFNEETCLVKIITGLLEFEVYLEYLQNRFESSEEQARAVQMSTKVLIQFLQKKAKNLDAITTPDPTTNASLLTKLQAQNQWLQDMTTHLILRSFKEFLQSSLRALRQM
notes: also called Phe102Glu mutant human IL-6
B8: R207E mutant IL-6 (ligand)
chain: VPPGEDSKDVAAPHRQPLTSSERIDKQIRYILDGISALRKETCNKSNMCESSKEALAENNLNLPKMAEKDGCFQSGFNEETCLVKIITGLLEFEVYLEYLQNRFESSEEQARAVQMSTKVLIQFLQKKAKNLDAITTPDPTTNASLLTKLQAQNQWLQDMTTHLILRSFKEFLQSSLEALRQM
notes: As for F102E mutant: made from pT7flagHISIL-6; also called Arg207Glu mutant human IL-6
B9: Mature human IL-6 (ligand)
chain: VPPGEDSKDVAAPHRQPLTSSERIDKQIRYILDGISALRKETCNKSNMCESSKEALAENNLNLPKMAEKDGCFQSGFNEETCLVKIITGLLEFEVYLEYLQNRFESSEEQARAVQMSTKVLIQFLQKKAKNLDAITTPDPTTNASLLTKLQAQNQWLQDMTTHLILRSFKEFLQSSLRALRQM
notes: also called wt IL-6; wild type human IL-6

The target in the first experiment is T1, Antibody 18 (GL) IgG.
T1 construct: Germlined IgG1/kappa; also called Ab 18
T1 sequence (VH, as listed by the source, chain 1 of 2): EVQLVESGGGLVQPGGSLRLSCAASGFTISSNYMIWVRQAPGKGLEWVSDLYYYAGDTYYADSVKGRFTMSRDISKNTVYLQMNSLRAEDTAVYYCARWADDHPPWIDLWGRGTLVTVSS
T1 sequence (VL, as listed by the source, chain 2 of 2): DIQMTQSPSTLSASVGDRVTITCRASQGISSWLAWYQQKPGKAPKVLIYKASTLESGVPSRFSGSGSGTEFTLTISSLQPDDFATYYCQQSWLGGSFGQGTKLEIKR
Nature of the experiment: IC50 ratio to wt IL-6, DELFIA competition. An excerpt:
(§1) The epitope of Antibody 18 (GL) was compared with the epitopes of two anti-human IL-6 antibodies B-E8 and cCLB8. Both these antibodies are known to inhibit the binding of IL-6 to IL-6Ra and have been investigated as potential therapeutic agents. To enable comparisons of the epitopes of the three antibodies, a panel of IL-6 mutants were constructed that each contained a single amino acid mutation compared to the wild-type (wt) sequence. The binding of these mutants to the different antibodies was then evaluated in biochemical competition assays. These experiments were based on the biochemical competition assay described in Example 1.6, with changes in the concentrations of antibodies and IL-6 variants where required. Briefly, antibodies were coated on to the surface of a 96-well Nunc Maxisorp immunoassay plate at a concentration of either 2 nM (Antibody 18) or 4 nM (B-E8 and cCLB8) in PBS and incubated overnight at 4° C. After the surface of the wells was blocked using 3% (w/v) BSA in PBS, dilutions of the inhibitors at a concentration range of 200 nM to 10 pM mixed with biotinylated human IL-6 at a final concentration of 0.15 nM were added to the antibody coated wells and allowed to bind. Binding of the biotinylated IL-6 to the antibodies was measured using Europium labelled streptavidin.
(§2) By comparing the IC₅₀ values obtained for the mutants to unlabelled wild type human IL-6, a ratio of potency could be established for each mutant. Then, by comparing these ratios across the different antibodies, the effects of the individual mutations on the binding of the antibody to the IL-6 molecule could be evaluated. Typical results of these experiments are presented in Table 10 with the experiments being repeated on 2 further occasions.
For B1, the “Potency Ratio” value was determined as 5.28.

Regarding B2, the “Potency Ratio” value is 535.

For the molecule B3, the “Potency Ratio” value was determined as 108.

For B4, the “Potency Ratio” value stood at 2.01.

Take B5: the “Potency Ratio” value worked out at 2.13.

With B6, the “Potency Ratio” value came to 1.5.

The target of the next experiment is T2, CNTO-328.
T2 construct: also called cCLB8; chimeric human-mouse anti-IL-6 antibody
Nature of the experiment: IC50 ratio to wt IL-6, DELFIA competition.
Description: as §1, §2
Turning to B7, the “Potency Ratio” value came to 3.02.

As for B2, the “Potency Ratio” value was determined as 2.15.

B8: the “Potency Ratio” value was determined as 7.4.

Regarding B3, the “Potency Ratio” value was 1.85.

As for B4, the “Potency Ratio” value is 1.68.

Regarding B5, the “Potency Ratio” value is 3.82.

For B6, the “Potency Ratio” value stood at 158.

The next experiment addresses T3, B-E8.
T3 construct: also called elsilimomab; murine anti-IL-6 antibody
Description: IC50 ratio to wt IL-6, DELFIA competition.
Description: as §1, §2
Consider B7, for which the “Potency Ratio” value was determined as 57.2.

With B1, the “Potency Ratio” value was 12.

Regarding B2, the “Potency Ratio” value is 379.

Consider B3, for which the “Potency Ratio” value came out at 2.43.

Take B4: the “Potency Ratio” value stood at 79.1.

Regarding B5, the “Potency Ratio” value is 2.29.

Consider B6, for which the “Potency Ratio” value came to 3.21.

The target of the next experiment is T1, Antibody 18 (GL) IgG. Nature of the experiment: IC50 ratio to wt IL-6 (the reference itself), DELFIA competition.
Description: as §1, §2
With B9, the “Potency Ratio” value stood at 1.

For another experiment, the target named is T2, CNTO-328. Described as above.
Description: as §1, §2
With B9, the “Potency Ratio” value came to 1.

A further experiment has as its target T3, B-E8. The description is as above.
Description: as §1, §2
As for B9, the “Potency Ratio” value worked out at 1.

A further experiment addresses T1, Antibody 18 (GL) IgG. Nature of the experiment: DELFIA competition; inhibitor titrated against 0.15 nM biotinylated human IL-6 on coated antibody.
Description: as §1, §2
With B9, the IC50 was 0.27 nM and 0.205 nM and 0.239 nM and 0.245 nM.

For B7, the concentration for half-maximal inhibition (IC50) worked out at 84.1 nM.

The molecule B1 showed a 50% inhibitory concentration (IC50) of 1.43 nM.

As for B2, the IC50 was determined as 131 nM. Compared with the last molecule, the IC50 is about 92-fold higher.

Regarding B8, the binding result is reported as “no binding (tested: 200 nM)”.

B3 yielded an IC50 of 25.7 nM.

Molecule B4 came in with a 50% inhibitory concentration (IC50) of 0.479 nM.

Consider B5, for which the half-maximal inhibitory concentration (IC50) was determined as 0.522 nM.

With B6, the IC50 came out at 0.307 nM.

Another experiment deals with T2, CNTO-328. The description is as above.
Description: as §1, §2
As to B9, the IC50 was 0.926 nM and 0.693 nM and 1.03 nM and 0.702 nM.

The molecule B7 gave a half-inhibitory concentration (IC50) of 2.8 nM.

With B2, the half-inhibitory concentration (IC50) came to 1.51 nM.

In turn, B8 showed an IC50 of 5.13 nM.

On to B3, for which the concentration for half-maximal inhibition (IC50) was 1.9 nM.

As to B4, the half-maximal inhibitory concentration (IC50) amounted to 1.73 nM. The IC50 values of the last two molecules are within 1.5-fold of each other.

The molecule B5 registered an IC50 of 2.68 nM.

Turning to B6, the half-inhibitory concentration (IC50) turned out to be 110 nM.

A further experiment deals with T3, B-E8. The experiment is described as above.
Description: as §1, §2
On to B9, for which the IC50 was 0.276 nM and 0.265 nM and 0.198 nM and 0.248 nM.

With B7, the IC50 was determined as 15.8 nM. That is a double-digit nanomolar value.

B1 yielded an IC50 of 3.31 nM. Against the preceding molecule, the IC50 is about 4.8-fold lower.

B2 yielded an IC50 of 94.1 nM.

In turn, B3 yielded a half-maximal inhibitory concentration (IC50) of 0.483 nM.

Turning to B4, the concentration for half-maximal inhibition (IC50) was 15.7 nM. This IC50 is about 33-fold higher than that of the molecule before.

B5 gave an IC50 of 0.568 nM.

In turn, B6 gave an IC50 of 0.851 nM.

What is called IC50 is the concentration that inhibits the measured activity by half.
